In PubChem BioAssay AID2528 (National Center for Advancing Translational Sciences (NCATS), 2010):
About 700 (0.2%) of roughly 350,000 compounds were called active. Inconclusive means that the source gave no clear call. Such entries were picked first, then a sample of the others. Calls come from the whole dose curve; as a rule, active = well fitted inhibition curve with a large enough effect; inconclusive = small, poorly fitted or top-dose-only effect; inactive = flat fitted curve, though single readings scatter. No potency is given beside an inconclusive call; the fits are too rough.

Molecular target: RecQ-like DNA helicase BLM (Homo sapiens) (UniProt P54132)
Chain of UniProt P54132 (P54132 whole entry, looked up): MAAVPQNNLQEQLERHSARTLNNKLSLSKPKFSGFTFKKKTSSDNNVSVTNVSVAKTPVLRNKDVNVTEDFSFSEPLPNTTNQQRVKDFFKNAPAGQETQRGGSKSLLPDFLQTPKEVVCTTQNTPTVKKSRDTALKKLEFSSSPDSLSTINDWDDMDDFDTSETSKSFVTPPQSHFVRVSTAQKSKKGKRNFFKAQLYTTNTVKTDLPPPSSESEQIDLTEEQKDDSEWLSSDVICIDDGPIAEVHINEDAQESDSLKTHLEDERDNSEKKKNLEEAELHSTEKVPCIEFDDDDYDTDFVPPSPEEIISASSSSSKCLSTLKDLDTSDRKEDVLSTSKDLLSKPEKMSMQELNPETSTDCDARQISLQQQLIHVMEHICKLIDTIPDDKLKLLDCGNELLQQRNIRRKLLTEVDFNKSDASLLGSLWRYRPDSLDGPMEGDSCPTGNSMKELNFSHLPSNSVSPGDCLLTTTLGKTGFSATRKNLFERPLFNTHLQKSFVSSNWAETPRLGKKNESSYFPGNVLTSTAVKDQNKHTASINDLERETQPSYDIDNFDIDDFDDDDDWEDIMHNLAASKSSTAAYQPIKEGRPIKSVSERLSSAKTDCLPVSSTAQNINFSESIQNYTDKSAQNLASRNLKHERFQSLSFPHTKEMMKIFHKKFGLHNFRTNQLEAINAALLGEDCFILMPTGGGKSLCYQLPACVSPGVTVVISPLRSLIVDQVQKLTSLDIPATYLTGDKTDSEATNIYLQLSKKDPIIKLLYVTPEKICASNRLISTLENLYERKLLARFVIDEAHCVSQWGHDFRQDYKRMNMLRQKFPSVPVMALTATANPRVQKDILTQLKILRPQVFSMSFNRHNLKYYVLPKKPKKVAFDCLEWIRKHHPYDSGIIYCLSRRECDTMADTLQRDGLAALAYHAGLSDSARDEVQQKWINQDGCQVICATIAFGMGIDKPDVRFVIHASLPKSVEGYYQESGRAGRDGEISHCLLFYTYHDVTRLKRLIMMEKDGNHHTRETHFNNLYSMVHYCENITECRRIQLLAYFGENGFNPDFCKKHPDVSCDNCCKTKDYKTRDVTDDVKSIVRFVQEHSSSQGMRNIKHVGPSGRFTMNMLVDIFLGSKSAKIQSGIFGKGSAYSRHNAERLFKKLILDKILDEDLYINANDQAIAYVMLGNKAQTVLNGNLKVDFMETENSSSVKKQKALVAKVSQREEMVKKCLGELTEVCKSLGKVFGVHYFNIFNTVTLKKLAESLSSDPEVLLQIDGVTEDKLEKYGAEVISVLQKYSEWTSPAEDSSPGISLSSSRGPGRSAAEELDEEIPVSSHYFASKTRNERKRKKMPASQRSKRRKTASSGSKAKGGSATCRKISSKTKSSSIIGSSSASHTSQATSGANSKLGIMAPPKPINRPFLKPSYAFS
Test: qHTS Assay for Inhibitors of Bloom's syndrome helicase (BLM); note: nearly all actives have a fitted effect of over 35% in size;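 for activity change, negative = inhibition: plate controls were vehicle for no effect and no enzyme for full effect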
Conditions: recombinant BLM DNA unwinding, fluorescence dequenching; series mostly up to 56.1 µM; activity change, negative = inhibition: at the top concentration
Potency is the fitted concentration of half-maximal effect; tags give direction and shape of the fitted curve.

Structure (SMILES)	Potency	activity change, negative = inhibition
O=C1CSC(=S)N1/N=C/c1ccc(O)c(O)c1O	inconclusive [inhibitor, full curve, poor fit]	
Cc1cccc(Nc2nn3c(=O)c4cc5c(cc4nc3s2)OCO5)c1	active: 11.2 µM	
C=CCOC(=O)NC(c1ccc(F)c(F)c1)C(C(=O)CCl)C(=O)OC (stereo not given)		inactive: 2.37%
CC(C)(C)NC(=O)COc1ccc(CNc2ccc3[nH]c(=O)[nH]c3c2)cc1	inconclusive [inhibitor, single point]	
COc1cc2c(cc1OC)C1O[C@](CCCCN3C(=O)c4ccccc4C3=O)(C2)Oc2c1c(=O)oc1ccc(F)cc21	inconclusive [inhibitor, single point]	
COc1cccc2c1C(=O)c1c(O)c3c(c(O)c1C2=O)C[C@@](O)(C(=O)CO)C[C@@H]3O[C@H]1C[C@H](N)[C@H](O)[C@H](C)O1	active: 28.2 µM	
COC/C=C/C1=CC2=CC(=O)C(C)(OC(=O)c3ccc(Cl)nc3)C(=O)C2=CO1 (stereo not given)		inactive: -11.3%
Cc1ccc(-c2csc(NC(=O)/C=C/c3ccco3)c2C(=O)O)cc1	inconclusive [inhibitor, single point]	
CCOc1ccc(-n2c(=S)sc3c(=O)[nH]c(SCC(=O)NC(C)CC)nc32)cc1 (stereo not given)	inconclusive [inhibitor, single point]	
Cc1ccc([N+](=O)[O-])cc1-c1ccc(/C=C(\C#N)c2[nH]nc(N)c2C#N)o1	inconclusive [inhibitor, partial curve]	
Cc1cc(C)cc(OCC(O)CN2CCC(CN3C(=O)c4cccc5cccc(c45)C3=O)CC2)c1 (stereo not given)		inactive: -3.44%
COc1ccc(NC(=O)Cn2c3ncccc3c(=O)n2-c2ccc(C)c(C)c2)c(OC)c1		inactive: -10.1%
COc1cc(C2C(=O)N(C3CCCCCC3)CC(=O)N2CCC2=CCCCC2)ccc1OC(C)C (stereo not given)		inactive: -2.26%
Cc1ccc2nc(/C(C#N)=C/c3ccc(O)c(O)c3)[nH]c2c1	active: 20 µM	
CCc1ccc(C(=O)CSC2=C(C#N)C(c3ccco3)C(C(C)=O)=C(C)N2)cc1 (stereo not given)	inconclusive [inhibitor, single point]	
Cc1cnn(C(=S)NCc2ccco2)c1	inconclusive [inhibitor, single point]	
O=C1C(Nc2ccc(O)cc2)=C/C(=N/S(=O)(=O)c2cccs2)c2ccccc21	inconclusive [inhibitor, partial curve]	
Nc1cccc2nc3ccccc3cc12		inactive: 208%
CCOc1ccc(-c2nc(SCC(=O)Nc3ccc(C)c(C)c3)n3[nH]c(=O)cc3n2)cc1	active: 14.1 µM	
O=C(N/N=C/c1cc(Br)c(Br)o1)c1cc2ccccc2o1		inactive: -9.2%
CCCCCCCCCCOc1cc(OCCCCCCCCCC)cc(N(CC(=O)O)CC(=O)O)c1	inconclusive [inhibitor, partial curve]	
Cc1ccsc1CNc1ncnc2ccc(-c3c(C)noc3C)cc12		inactive: -5.95%
O=C(N/N=C/c1cccc(OC(=O)c2ccc3c(c2)OCO3)c1)c1cncc(Br)c1	inconclusive [inhibitor, single point]	

Structure (SMILES)	Potency	activity change, negative = inhibition
C=CCn1c(SCC(=O)c2ccc(CNC(C)=O)o2)nc2scc(C3CC3)c2c1=O	inconclusive [inhibitor, single point]	
CC1=C(CC(=O)O)c2cc(F)ccc2/C1=C\c1ccc(S(C)=O)cc1 (stereo not given)	inconclusive [inhibitor, full curve, poor fit]	
O=C(Nc1cc2c(oc1=O)CCCC2=O)c1ccc(Cl)cc1	inconclusive [inhibitor, single point]	
Cc1ccc2nc(CSc3nnc(-c4ccco4)o3)cc(=O)n2c1	inconclusive [inhibitor, single point]	
COc1cc(/C=C/c2nnc3c4ccccc4ncn23)cc(OC)c1OC		inactive: -11.5%
COc1cc(OC)cc(C(=O)NCc2ccc3c(c2)cc(C)n3C)c1		inactive: -0.495%
CC(C)NC(=O)c1cnc2sc(N3CCCCCC3)nn2c1=O		inactive: -4.98%
CCOc1ccc(-n2c(O)c(/C=N/Nc3nc(C)cc(C)n3)c3ccccc3c2=O)cc1	inconclusive [inhibitor, single point]	
CC(C)Cc1nnc(NC(=O)Nc2ccccc2)s1		inactive: -3.47%
F[Si-2](F)(F)(F)(F)F		inactive: -15%
O=C(N/N=C/c1ccccn1)c1cc(-c2ccc3ccccc3c2)n[nH]1	inconclusive [inhibitor, single point]	
COc1ccc(Cn2c3nc4ccccc4nc3c3c(=O)n(Cc4ccco4)c(C)nc32)cc1	inconclusive [inhibitor, single point]	
CC(C)NC[C@@H](O)c1ccc(O)c(O)c1	inconclusive [inhibitor, single point]	
N#Cc1c(-c2ccco2)cc(C2CC2)nc1SCC(=O)c1ccccc1	inconclusive [inhibitor, single point]	
Cc1oc2ccc(OCc3ccc(Br)cc3)cc2c1C(=O)O	inconclusive [inhibitor, single point]	
COC(=O)Cc1cc(=O)n2[nH]c(C)c(-c3ccccc3)c2n1	inconclusive [inhibitor, single point]	
Cc1ccc(NC(=O)Cn2cc(S(=O)(=O)Cc3ccc(F)cc3)c3ccccc32)cc1Cl	inconclusive [inhibitor, partial curve]	
Cc1cc(SCC(=O)NC(=O)NCc2ccco2)nc2c(C)cccc12	inconclusive [inhibitor, single point]	
O=C(CSc1nnc(-c2ccco2)o1)c1ccc[nH]1	inconclusive [inhibitor, partial curve]	
O=c1nc2s/c(=C\c3ccc(-c4ccccc4[N+](=O)[O-])o3)c(=O)n2nc1-c1ccccc1	inconclusive [inhibitor, single point]	
COc1ccc(CCn2c(C)ccc2C)cc1OC		inactive: -1.17%
C/C(=C\c1ccco1)C1Nc2cccc3cccc(c23)N1	inconclusive [inhibitor, full curve]	
